Results on 1 protein are retold here after patent US20130337044.

The target of this data set is human C3, P01024.
human C3, P01024, sequence (P01024 whole entry, looked up): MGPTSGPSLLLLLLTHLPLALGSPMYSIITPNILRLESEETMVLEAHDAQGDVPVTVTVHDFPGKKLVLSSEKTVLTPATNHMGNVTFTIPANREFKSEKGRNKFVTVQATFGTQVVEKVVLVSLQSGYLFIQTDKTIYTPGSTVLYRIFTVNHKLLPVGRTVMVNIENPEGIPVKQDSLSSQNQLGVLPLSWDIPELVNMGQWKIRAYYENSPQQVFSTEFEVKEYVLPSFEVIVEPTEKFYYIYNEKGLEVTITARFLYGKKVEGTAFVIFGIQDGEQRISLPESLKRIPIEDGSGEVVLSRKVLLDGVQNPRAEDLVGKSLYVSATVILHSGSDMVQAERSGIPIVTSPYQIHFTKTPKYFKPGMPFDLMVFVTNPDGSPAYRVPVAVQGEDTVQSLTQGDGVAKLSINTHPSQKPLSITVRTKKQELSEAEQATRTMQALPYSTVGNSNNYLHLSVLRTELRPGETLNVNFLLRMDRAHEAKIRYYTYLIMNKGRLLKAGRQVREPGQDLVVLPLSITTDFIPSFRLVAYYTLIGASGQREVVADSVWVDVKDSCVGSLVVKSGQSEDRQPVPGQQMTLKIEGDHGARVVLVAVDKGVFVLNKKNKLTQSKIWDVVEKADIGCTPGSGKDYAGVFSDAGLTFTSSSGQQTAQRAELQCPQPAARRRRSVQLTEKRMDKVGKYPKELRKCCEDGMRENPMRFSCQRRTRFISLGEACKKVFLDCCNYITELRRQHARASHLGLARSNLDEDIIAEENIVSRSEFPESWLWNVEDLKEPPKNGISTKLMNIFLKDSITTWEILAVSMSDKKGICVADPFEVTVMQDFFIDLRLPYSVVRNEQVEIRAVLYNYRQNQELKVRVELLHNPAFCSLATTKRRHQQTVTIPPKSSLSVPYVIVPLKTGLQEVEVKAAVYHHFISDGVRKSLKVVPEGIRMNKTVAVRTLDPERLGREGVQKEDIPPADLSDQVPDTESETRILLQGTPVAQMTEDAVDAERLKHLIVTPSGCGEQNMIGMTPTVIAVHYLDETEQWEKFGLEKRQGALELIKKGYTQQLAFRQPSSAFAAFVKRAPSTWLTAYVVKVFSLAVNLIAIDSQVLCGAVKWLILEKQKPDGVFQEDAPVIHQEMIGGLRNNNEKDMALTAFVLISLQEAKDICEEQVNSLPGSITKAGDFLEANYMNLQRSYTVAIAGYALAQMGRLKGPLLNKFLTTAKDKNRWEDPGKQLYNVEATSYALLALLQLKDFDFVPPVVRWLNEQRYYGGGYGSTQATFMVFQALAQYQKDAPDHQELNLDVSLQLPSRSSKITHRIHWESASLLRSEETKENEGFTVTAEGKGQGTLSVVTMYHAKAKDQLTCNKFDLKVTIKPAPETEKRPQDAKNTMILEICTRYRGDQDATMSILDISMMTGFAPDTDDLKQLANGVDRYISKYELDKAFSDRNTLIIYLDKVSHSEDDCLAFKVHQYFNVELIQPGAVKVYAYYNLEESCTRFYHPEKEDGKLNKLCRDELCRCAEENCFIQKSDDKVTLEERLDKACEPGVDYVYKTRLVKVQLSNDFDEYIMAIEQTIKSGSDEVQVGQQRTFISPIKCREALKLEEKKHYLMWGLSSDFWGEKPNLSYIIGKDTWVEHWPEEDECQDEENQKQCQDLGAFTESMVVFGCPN

B1: Factor B (protein)
chain: TPWSLARPQGSCSLEGVEIKGGSFRLLQEGQALEYVCPSGFYPYPVQTRTCRSTGSWSTLKTQDQKTVRKAECRAIHCPRPHDFENGEYWPRSPYYNVSDEISFHCYDGYTLRGSANRTCQVNGRWSGQTAICDNGAGYCSNPGIPIGTRKVGSQYRLEDSVTYHCSRGLTLRGSQRRTCQEGGSWSGTEPSCQDSFMYDTPQEVAEAFLSSLTETIEGVDAEDGHGPGEQQKRKIVLDPSGSMNIYLVLDGSDSIGASNFTGAKKCLVNLIEKVASYGVKPRYGLVTYATYPKIWVKVSEADSSNADWVTKQLNEINYEDHKLKSGTNTKKALQAVYSMMSWPDDVPPEGWNRTRHVIILMTDGLHNMGGDPITVIDEIRDLLYIGKDRKNPREDYLDVYVFGVGPLVNQVNINALASKKDNEQHVFKVKDMENLEDVFYQMIDESQSLSLCGMVWEHRKGTDYHKQPWQAKISVIRPSKGHESCMGAVVSEYFVLTAAHCFTVDDKEHSIKVSVGGEKRDLEIEVVLFHPNYNINGKKEAGIPEFYDYDVALIKLKNKLKYGQTIRPICLPCTEGTTRALRLPPTTTCQQQKEELLPAQDIKALFVSEEEKKLTRKEVYIKNGDKKGSCERDAQYAPGYDKVKDISEVVTPRFLCTGGVSPYADPNTCRGDSGGPLIVHKRSRFIQVGVISWGVVDVCKNQKRQKQVPAHARDFHINLFQVLPWLKEKLQDEDLGFL
As to B1, the “convertase activity in the stability assay (fluorogenic substrate)” value is reported as “the C3b,Bb convertase complex exhibited no activity”.
